According to the RNAGym collection of RNA variant scans (doi:10.1093/nar/gkz1192):
Read counts are not given, so values of variants with three or more changes are uncertain.

B1: CPEB3 Ribozyme (parent)
chain: UAACAGGGGGCCACAGCAGAAGCGUUCACGUCGCAGCCCCUGUCAGAUUCUGGUGAAUCUGCGAAUUCUGCUGUAUAUCUC

Variants of: B1
Assay: self-cleavage, relative activity (ratio to wild type); higher = more cleavage; in vitro, sequencing
Outline: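 Barcoded CPEB3 ribozyme mutants, produced by rounds of error-prone PCR, self-cleaved while being transcribed with T7 RNA polymerase for 5 hours at 37°C and during a subsequent 15 min DNase I step before EDTA was added. Sequencing of template-switched cDNA on Illumina gave cleaved and total reads, and DNA sequencing assigned barcodes to variants. Each variant's relative activity is its cleaved/total read fraction divided by the unmutated ribozyme's fraction, averaged across three batches. A variant needed a minimum of 5 reads.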

With UGACAGGGGGCCACAGCAGAAGCGUUCACGUCGCAGCCCCUGUCAGGUUCUGGUGAAUCUGCGAAUUCUGCUGAAUAUCCC as the variant, how does the self-cleavage read?
Its self-cleavage is 1.13.

For UGACAGGGGGCCACAGCAGAAGCGUUCACGUCGCAGCCCCUGUCAGUUCCUGGUGAAUCUGCGAAUUCUGCUGUAUAUCUC, which self-cleavage is on record?
The self-cleavage was 0.15.

For UGACAGGGGGCCACAGCAGAAGCGUUCACGUCGCAGCCCCUGUCAGAUUCUGGUGGUUCAGCGAAUUCUGUUGUAUAUCUC, which self-cleavage is on record?
The self-cleavage was 0.04.

For UGACAGGGGGCCACAGCAGAAGCGUUCACGUCGCAGCCCCUGUCAGAUUCUGGUGGAUCUGCGAAUUCUGCUGUAUGUCUC, which self-cleavage is on record?
Its self-cleavage is 0.54.

With UGACAGGGGGCCACAGCAGAAGCGUUCACGUCGCAGCCCCUGUCAGAUUCUGGUGGAUCUGCGAAUUCUGCUGUAUAACUC as the variant, how does the self-cleavage read?
Its self-cleavage is 0.68.

Which self-cleavage does the source give for UGACAGGGGGCCACAGCAGAAGCGUUCACGUCGCAGCCCCUGUCAGAUUCUGGUGUAUCUGCGAAUACUGGUGUAUAUCUC here?
The self-cleavage was 0.22.

For UGACAGGGGGCCACAGCAGAAGCGUUCACGUCGCAGCCCCUGUCAGAUUCUGGUGAAUCUGCGGAUUCUGCUGUACAUCUC, which self-cleavage is on record?
Its self-cleavage is 0.4.

Which self-cleavage does the source give for UGACAGGGGGCCACAGCAGAAGCGUUCACGUCGCAGCCCCUGUCAGAUUCUGGUGAAUCUGCGGAUUCUGCUGUAUAUCAC here?
Its self-cleavage is 0.57.

With UGACAGGGGGCCACAGCAGAAGCGUUCACGUCGCAGCCCCUGUCAGAUUCUGGUGAAUCUGCGUAUUCUGCUGUAUAUCAC as the variant, how does the self-cleavage read?
Its self-cleavage is 0.3.

For UGAUAGGGGGCCACAGCAGAAGCGUUCACGUCGCAGACCCUGUCAGACUCUGGUGAAUCUGCGUAUUCUGCUGUAUAUCUC, which self-cleavage is on record?
The self-cleavage was 0.24.

Which self-cleavage does the source give for UGAUAGGGGGCCACAGCAGAAGCGUUCACGUCGCAGCCCCUGUCAGAUUCUGGUGAAUCUGCGAAUUCUGUUGUAUAUCUC here?
The self-cleavage was 0.6.

For UGAUAGGGGGCCACAGCAGAAGCGUUCACGUCGCAGCCCCUGUCAGAUUCUGGUGAAUCUGCGAAUUCUGUUGUAUAUCCC, which self-cleavage is on record?
The self-cleavage was 1.2.

With UGACAGGGGGACACAGCAGAAGCGUUCACGUCGCGGCCCCUGUCAGAUUCUGGUGAAUCUGCGAAUUCUGCUGUAUAUCUC as the variant, how does the self-cleavage read?
The self-cleavage was 0.11.

For UGACAGGGGGACACAGCAGAAGCGUUCACGUCGCAGCCCCUGUCAGAUUCUGGCGAAUCUGCGAAUUCUGCUGCUUAUCUC, which self-cleavage is on record?
Its self-cleavage is 0.39.

With UGACAGGGGGGCACAGCAGGAGCGAUCACGUCGCAGCCCCUGUCAGAUUCUGGUGUAUCUGCGAAUUCUGCUGUAUAUCUC as the variant, how does the self-cleavage read?
Its self-cleavage is 0.29.

For UGACAGGGGGGCACAGCAGAAGCGUUCACGUCGCUGCCCCUGUCAGACUCUGGUGGAUCUGCGAAUUCAGCUGUAUACCUC, which self-cleavage is on record?
Its self-cleavage is 0.09.

With UGACAGGGGGUCGCAGCAGAUGCGCUCUCGUCGCAGUCCCUGUCAGAUUCUGGUGAAUCUGCGAAUUCUGCUGUAUAUCUC as the variant, how does the self-cleavage read?
The self-cleavage was 0.05.

Which self-cleavage does the source give for UGACAGGGGGUCACAGCAGAAGCGUUCACGUCGCUGCCCUUGUCUGAUUCUGGUGAAUCUGCGUAUUCUGCUGUAUAUCCC here?
Its self-cleavage is 0.04.

For UGACAGGGGGUCACAGCAGAAGCGUUCACGUCGCAGCCCCUGUCAGAUUCUGGUGCAUCUGCGAACUCUGCUGUAUAUCUC, which self-cleavage is on record?
Its self-cleavage is 0.11.

For UGACAGGGGGUUACAGCAGAAGCGUUCACGUCGCAGCCCCUGUCAGAUUCUGGUGGAUCUGCGAAUUCUGCUGUAUAUCUC, which self-cleavage is on record?
The self-cleavage was 0.28.

Which self-cleavage does the source give for UGACAGGGGGUCACAGCAGAAGCGUUCACGUAGGAGCCCCUGUCAGAUUCUGGUGAAUCUGCGAAUUCCGCUGUAUAUCUC here?
Its self-cleavage is 0.09.

With UGACAGGGGGUCACAGCAGAAGCGUUCACGUCGCAGCCCCUGUCAGAUUCUGGUGAAUCUGCGAAUCCUGCUGUAUAUCUC as the variant, how does the self-cleavage read?
Its self-cleavage is 0.07.

Which self-cleavage does the source give for UGACAGGGGGUCACAGCAGAAGCGUUCACGUCGCAGCCCCUGUCAGAUUCUGGUGAAUCUGCGAAUUCAGCUGUAUACCUC here?
Its self-cleavage is 0.27.

With UGACAGGGGGCAACAGCAGAGGCGUUCACGCCGCAGCCCCUGUCAGAUUCUGGUGAAUCUGCGAAUUCUGCAGUAUAUCUC as the variant, how does the self-cleavage read?
The self-cleavage was 0.03.

With UGACAGGGGGCUACAGCAGAAGCGUUCACGUCGCUGCCCCUGUCAGAUUCUGGUGAAUCUGCGAAUUCUGCUGUAUACCUU as the variant, how does the self-cleavage read?
The self-cleavage was 0.36.

For UGACAGGGGGCUACAGCAGAAGCGUUCACGUCGCAGCCCCAGUCAGAUUCUGGUGAAUCUGCGAAUUCUGCUGUAUAUCUC, which self-cleavage is on record?
The self-cleavage was 0.31.

For UGACAGGGGGCCACAGGGGAAGCGUUCACGACGCAGCCCCUGUCAGAUUCUGGUGAAUCUGCGAAUUCUGCUGUAUAUCUC, which self-cleavage is on record?
Its self-cleavage is 0.33.

Which self-cleavage does the source give for UGACAGGGGGCCACAGCAGAAGGGUUCACGUAGCAGCGCCUGUCAGAUUCUGGUGAGUCUGCGCGUUCUGCUGUAUAUCUC here?
Its self-cleavage is 0.02.

Which self-cleavage does the source give for UGACAGGGGGCCACAGCAGAAGGGUUCACGUCGCAGCCCCUGUCAGAUUCAGGAGAAUCUGCGUAUUCUGCUGUAUAUCCC here?
The self-cleavage was 0.05.

For UGACAGGGGGCCACAGCAGAAGUGCUCACGUCGCAGCCCCUGUCAGAUUCUGGUGAAUCUGCGAAUUCUGCUGUAUAUCUC, which self-cleavage is on record?
Its self-cleavage is 0.08.

Which self-cleavage does the source give for UGACAGGGGGCCACAGCAGAAGUGCUCGCGUCGCAGCCCCAGUCAGAUUCUGGUGAAUCAGCGAAUUCUGCUGUACAUCUC here?
The self-cleavage was 0.15.

With UGACAGGGGGCCACAGCAGAAGUGCUCACGUCGCAGCCCCUGUCAGGUUCCGGUGAAUCUGCGAAUUCUGCUGUAUAUCUC as the variant, how does the self-cleavage read?
Its self-cleavage is 0.04.

For UGACAGGGGGCCACAGCAGAAGUGUUCACGUCGCAGCCCCUGUCAGAUACUGGUGAAUCUGCGUAUUCUGCUGUAUAUCUC, which self-cleavage is on record?
The self-cleavage was 0.08.

For UGACAGGGGGCCACAGCAGAAGUGUUCACGUCGCAGCCCCUGUCAGAUUCUGGUGAAUCUGCGAAUUCUGCUGUACAUCUC, which self-cleavage is on record?
Its self-cleavage is 0.38.
